Source: PubChem BioAssay AID651813 (National Center for Advancing Translational Sciences (NCATS), 2012)
The campaign covered roughly 2,100 compounds. About 1,100 (52%) were called active. The set was probably picked from earlier hits. Inconclusive results, whose numbers are uncertain, are shown with a selection of clear calls. Calls come from the whole dose curve; as a rule, active = well fitted inhibition curve with a large enough effect; inconclusive = small, poorly fitted or top-dose-only effect; inactive = no such curve, though single readings can be large or run the other way. Potencies of inconclusive entries are left out as doubtful fits.

molecular target: DNA dC->dU-editing enzyme APOBEC-3G (Homo sapiens) (UniProt Q9HC16); experiment: qHTS for inhibitors of Vif-A3G interactions: Cherry picks counterscreen; conditions: HeLa A3G-eYFP + Vif (tagged APOBEC3G with the HIV-1 protein that degrades it), eYFP fluorescence, 24 h;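 note: hits raise yellow fluorescence by blocking Vif-driven A3G-eYFP degradation; nearly all actives have a fitted effect of over 70% in size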;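 for max response: max response given as percent of control signal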
UniProt Q9HC16, sequence (Q9HC16 whole entry, looked up): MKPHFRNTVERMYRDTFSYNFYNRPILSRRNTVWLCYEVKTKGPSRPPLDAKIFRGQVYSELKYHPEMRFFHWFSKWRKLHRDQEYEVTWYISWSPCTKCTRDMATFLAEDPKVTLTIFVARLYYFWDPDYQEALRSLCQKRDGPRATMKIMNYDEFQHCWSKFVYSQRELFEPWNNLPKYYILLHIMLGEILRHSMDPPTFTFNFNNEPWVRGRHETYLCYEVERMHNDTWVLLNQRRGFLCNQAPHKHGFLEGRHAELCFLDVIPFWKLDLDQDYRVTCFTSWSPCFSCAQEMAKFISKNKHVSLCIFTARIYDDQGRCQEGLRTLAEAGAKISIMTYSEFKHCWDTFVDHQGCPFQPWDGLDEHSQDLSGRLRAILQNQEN
Procedure, shortened: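 Readout is eYFP fluorescence (488 nm excitation, 500-530 nm emission) measured on Acumen Explorer after 24 h compound exposure, several concentrations, at 37 deg C. Cells: HeLa stably co-expressing Vif and C-terminally eYFP-tagged A3G; MG132 positive control.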
Potency is the fitted concentration of half-maximal effect; tags give direction and shape of the fitted curve.

Structure (SMILES)	Potency	max response
NC(=O)c1ccc(Cn2c(C(=O)c3cc(Cl)c(N)c(Cl)c3)c3ccccc3[n+]2[O-])cc1	active: 11.2 µM	
CCCC(=O)NC1=C(Cl)C(=O)c2ccccc2C1=O		inactive: 62.1%
COc1ccc(OC)c(CNc2nc3ccc(C)cc3n3nnnc23)c1	inconclusive [inhibitor, single point]	
O=C(/C(=C/c1ccc(Cl)cc1)c1nc2ccccc2[nH]1)c1cccs1	inconclusive [inhibitor, single point]	
Clc1ccccc1Cn1c(/C=C/c2ccco2)nc2ccccc21	inconclusive [inhibitor, single point]	
O=C(O)CCCNc1cc(N2CCN(C(=O)c3ccco3)CC2)c2noc3c2c1C(=O)c1ccccc1-3	inconclusive [inhibitor, single point]	
NC(=O)CSc1nc2c(sc3ccccc32)c(=O)n1CCCC(=O)NCC1CCCO1 (configuration not stated)		inactive: -5.1%
COc1ccc(NC(=O)c2sc3nc(-c4cccnc4)ccc3c2N)cc1OC	inconclusive [inhibitor, single point]	
C/C(=N\Nc1nccnc1Cl)c1ccc(Cl)c(Cl)c1		inactive: -0.872%
Cc1cc(C(F)(F)F)c2c(N)c(C(=O)Nc3cc(C)on3)sc2n1	inconclusive [inhibitor, single point]	
S=C(Nc1cccc2ccccc12)NN1CCCCCC1	inconclusive [inhibitor, partial curve, poor fit]	
COC(=O)c1ccccc1NC(=O)C1CC(=O)N(c2ccc(OC)cc2)C1 (configuration not stated)		inactive: -25.1%
COc1ccccc1/C=N/NC(=S)Nc1cccnc1		inactive: -12.2%
O=C(NCc1ccccc1C(F)(F)F)c1cccc2c1C(=O)c1ccc(N3CCC(N4CCCCC4)CC3)cc1S2(=O)=O	inconclusive [inhibitor, single point]	
CN[C@H]1CCc2cc(OC)c(OC)c(OC)c2-c2ccc(N(C)CC(OC)OC)c(=O)cc21	active: 6.27 µM	
O=C(c1cc([N+](=O)[O-])ccc1N1CCCCC1)N1CCc2ccccc21	inconclusive [inhibitor, partial curve, poor fit]	
COc1cc(Cl)c(C)cc1NC(=O)CN1CCN(C(=O)C2CC2)CC1		inactive: -28.2%
S=C(NCCSCc1ccc(Cl)cc1)Nc1ccccc1		inactive: -13.3%
O=[N+]([O-])/C=C\c1ccc(N2CCCC2)c(F)c1	inconclusive [inhibitor, single point]	
CC(=O)c1c(C)[nH]c(C(=O)Nc2ccc(Cl)cc2F)c1C		inactive: -22.8%
COc1cc(C(=O)NCCOc2cc(C)cc(C)c2)c(Br)c(OC)c1OC	inconclusive [inhibitor, single point]	
CS(=O)(=O)N(CC(=O)N1CCN(Cc2ccccc2)CC1)c1ccccc1F		inactive: -9.78%
Cc1ccc(C)c(N2CCN(C(=O)c3cccn4c(=O)c5sccc5nc34)CC2)c1	inconclusive [inhibitor, partial curve]	
CCSc1nnc(-c2sc3nnc(-c4ccccc4)c(-c4ccccc4)c3c2N)o1	active: 4.61 µM	

Structure (SMILES)	Potency	max response
O=C(CN1c2cccc3cccc(c23)S1(=O)=O)Nc1ccc(S(=O)(=O)N2CCOCC2)cc1		inactive: -29.7%
O=C(c1ccccc1)C(CN1CCCCC1)c1ccccc1 (configuration not stated)	inconclusive [inhibitor, single point]	
Cc1ccc(NC2=C(Cl)C(=O)N(C3CCCCC3)C2=O)cc1		inactive: 6.01%
CN1/C(=C\C=C(/C#N)C(=O)Nc2ccccc2F)C(C)(C)c2ccccc21	inconclusive [inhibitor, partial curve]	
CCOc1cccc(-n2nnnc2-c2ccc(OC)cc2)c1	active: 4.98 µM	
Cc1cc(OCC(=O)Nc2nnc(C3CC3)s2)ccc1Cl	inconclusive [inhibitor, partial curve, poor fit]	
CC(C)(C)NCC(=Cc1ccccc1)C(=O)c1ccccc1		inactive: -3.58%
CCOc1cc(/C=C2/SC(=S)N(CC3CCCO3)C2=O)ccc1O (configuration not stated)	inconclusive [inhibitor, single point]	
Cc1ccc(N=C2NC(=O)CC(C(=O)Nc3ccc4c(c3)OCO4)S2)cc1 (configuration not stated)		inactive: -13.3%
Cc1nc(C)c(C(=O)OCC(=O)Nc2ccccc2SCC#N)s1	active: 15.8 µM	
CCOc1ccccc1C1CC(c2cccs2)=NN1S(C)(=O)=O (configuration not stated)	inconclusive [inhibitor, single point]	
CCOc1ccc(-c2cc(C(F)(F)F)c(C#N)c(SCC(=O)Nc3ccccc3)n2)cc1	inconclusive [inhibitor, partial curve]	
Cc1cc(C)nc(Nc2nc(C(N)Cc3ccccc3)cs2)n1 (configuration not stated)	inconclusive [inhibitor, single point]	
CC1CC(C)(C)Nc2ccc(OC(=O)c3ccco3)cc21 (configuration not stated)	inconclusive [inhibitor, single point]	
CN1CCN(c2ccc([N+](=O)[O-])cc2C(=O)c2ccc(Br)cc2)CC1	active: 4.98 µM	
CCN(CC)C(=O)c1ccc(/C=C/c2c[nH]c3ccccc23)[n+](C)c1	active: 20.6 µM	
CN1C(=O)c2cccc(NCCCN3C(=O)c4ccccc4C3=O)c2C1=O	inconclusive [inhibitor, single point]	
CCN1/C(=C\C=C(C(C)=O)C(C)=O)Sc2ccccc21	inconclusive [inhibitor, partial curve]	
O=C(CC1CC2CCC1C2)Nc1nc(-c2ccccn2)cs1 (configuration not stated)		inactive: 10.6%
Cc1ccc(NC(=O)/C=C/c2ccc([N+](=O)[O-])s2)c(C)c1	active: 10.3 µM	
CCC(C)[C@H](NC(=O)N1CC(=O)Nc2ccccc21)C(=O)Nc1ccccc1C (some centres not stated)	active: 9.94 µM	
O=C(CN1C(=O)S/C(=C\c2cc(Cl)c(O)c(Cl)c2)C1=O)Nc1ccccc1	inconclusive [inhibitor, single point]	
CC(/C=N/NC(=O)c1cc(-c2ccc(C)s2)[nH]n1)=C\c1ccccc1	inconclusive [inhibitor, partial curve, poor fit]	
Cc1ccc(CN(C(=O)c2ccccc2F)c2ccccn2)o1	inconclusive [inhibitor, partial curve, poor fit]	

Structure (SMILES)	Potency	max response
Cc1ccc(C(=O)CCC(=O)OCC(=O)Nc2ccccc2SCC#N)cc1	inconclusive [inhibitor, partial curve]	
Cc1cccc(CSc2nc(-c3cccs3)ccc2C#N)c1	inconclusive [inhibitor, single point]	
CC(=O)Nc1cccc(-c2ccnc3c2CC(C)(C(=O)NCc2ccccc2)O3)c1 (configuration not stated)	active: 1.4 µM	
Cc1cc(/C=N/NC(=O)c2cc3ccccc3o2)c(C)n1C		inactive: -4.16%
CCN(CC)c1ccc2cc(-c3nc(-c4ccc(Cl)cc4Cl)cs3)c(=O)oc2c1		inactive: 34.3%
CCOc1ccc(CNC(=O)c2ccccc2NC(=O)c2nsc3ccccc23)cc1	inconclusive [inhibitor, partial curve]	
CCCC(=O)NC(c1ccc(OC)cc1)c1c(O)ccc2ccccc12 (configuration not stated)	inconclusive [inhibitor, single point]	
O=C(NC1C/C(=N/O)c2cc3c(cc21)OCO3)C(F)(F)F (configuration not stated)		inactive: -1.11%
COc1cc(/C=N/Nc2ccc(Cl)nn2)cc(OC)c1O		inactive: -0.979%
O=c1cc(-c2ccccc2)[nH]c2ccccc12	active: 3.14 µM	
Cc1ccc(CNC(=O)Cn2cc(C(=O)c3ccc(Cl)cc3)c(=O)c3ccc(C)nc32)cc1		inactive: -25%
CC1(C)COC(Cn2c3ccccc3c3ccccc32)O1 (configuration not stated)	inconclusive [inhibitor, single point]	
CSc1nc2ccccc2cc1/C=C(\C#N)c1cccc(C)c1	active: 12.5 µM	
COc1cc(OC)c(/C=C2\SC(=O)N(CC(=O)Nc3ccccc3F)C2=O)c(OC)c1	inconclusive [inhibitor, single point]	
Cc1ccc2[nH]c3c(c2c1)CN(C(=O)CN1CC(C)OC(C)C1)CC3 (configuration not stated)	inconclusive [inhibitor, single point]	
CCOc1cc(C)nc(NCc2ccccc2)n1		inactive: -21.7%
C/C(CC(=O)NCc1ccco1)=N\NC(=O)COc1ccc(Cl)cc1Cl	inconclusive [inhibitor, single point]	
COc1ccc(C(=O)N/N=C/c2ccccc2OC(=O)c2ccccc2)cc1	inconclusive [inhibitor, single point]	
COc1ccc2nc(NC(=S)NC(=O)c3ccco3)sc2c1		inactive: -0.487%
COc1cc(OC)cc(C(=O)N2CC(=O)Nc3ccccc32)c1	active: 3.53 µM	
CN1C2=CC=CC=CC2=[N+](C)C12C([N+](=O)[O-])=CC(=[N+]([O-])[O-])C=C2[N+](=O)[O-] (configuration not stated)		inactive: -21%
CC(=O)c1cccc(NC(=O)/C=C/c2ccc([N+](=O)[O-])s2)c1	active: 10.3 µM	
CCCOc1ccccc1C1CC(=O)Nc2cc3c(cc21)OCO3 (configuration not stated)	inconclusive [inhibitor, single point]	
COc1ccc(-c2coc3cc4oc(=O)cc(-c5ccccc5)c4cc23)cc1F	active: 2.23 µM	
